Data on nine compounds can be found in article PMC9673142, “1,3-Diarylpyrazolyl-acylsulfonamides Target HadAB/BC Complex in Mycobacterium tuberculosis” (ACS Infectious Diseases, 2022).

Values after ≈ are worked out from the molar mass of the structure shown. Read-outs that look alike come from different tables or passages of the source. Where only a bound is given, the exact number is not on record here.

Assay [1] relates to Pseudomonas aeruginosa ATCC 27853. Put plainly: ESKAPE antimicrobial screening, microdilution broth MIC. Type of assay: cell-based. (Broth dilution looks for growth in wells or tubes with falling amounts of substance.)
Assay [2] deals with Enterobacter cloacae ATCC 700323. The assay is described as above. Type of assay: cell-based.
For assay [3], the system named is Escherichia coli ATCC 25922. Described as above. The note with it: read-out: MIC Escherchia coli (ATCC 25922). It is filed as cell-based.
Assay [4] deals with Acinetobacter baumannii ATCC 19606. Described as above. Type of assay: cell-based.
Assay [5] deals with Klebsiella pneumoniae ATCC BAA-1705. Described as above. It is filed as cell-based.
The test system of assay [6] is Staphylococcus aureus ATCC 25923. The assay is described as above. Type of assay: cell-based.
The next assay addresses Mtb HadAB (Mycobacterium tuberculosis, UniProt I6WYY7+P9WFK1). To be noted: read-out: Ki Mtb HadAB; cited from earlier work.
[7] abbreviates: MH broth, 16 hours, tested 0.25 – 128 µM.
Where [8] appears, read: Pseudomonas aeruginosa, ATCC27853, MH broth, 16 hours, tested 0.25 – 128 µM.
Where [9] appears, read: Enterobacter cloacae, ATCC700323, MH broth, 16 hours, tested 0.25 – 128 µM.
Where [10] appears, read: Escherichia coli, ATCC25922, MH broth, 16 hours, tested 0.25 – 128 µM.
[11] abbreviates: Acinetobacter baumannii, ATCC19606, MH broth, 16 hours, tested 0.25 – 128 µM.
[12] abbreviates: Klebsiella pneumoniae, ATCCBAA1705, MH broth, 16 hours, tested 0.25 – 128 µM.
The mark [13] stands for this setting: Staphylococcus aureus, ATCC25923, MH broth, 16 hours, tested 0.25 – 128 µM.

One may read the MIC as the smallest concentration in the dilution series that meets the test's criterion for growth inhibition. On to gentamycin [reference compound], for which the MIC is given as 2 µM in assay [1] (setting [7]); 2 µM in assay [2] (setting [7]); 2 µM in assay [3] (setting [7]); 16 µM in assay [4] (setting [7]); 4 µM in assay [5] (setting [7]); 0.5 µM in assay [6] (setting [7]).

As a reminder, the Ki is the equilibrium dissociation constant of an inhibitor or competing ligand from its target. With `O=c1c(O)c(-c2ccc(O)c(O)c2)oc2cc(O)ccc12` [fisetin], the inhibitory constant (Ki) at Mtb HadAB is 10.9 µM.

Consider `NC[C@H]1O[C@H](O[C@H]2[C@H](O)[C@@H](O[C@H]3O[C@H](CO)[C@@H](O)[C@H](N)[C@H]3O)[C@H](N)C[C@@H]2N)[C@H](O)[C@@H](O)[C@@H]1O` [Kanamycin, kanamycin, reference compound], for which the MIC in assay [1] is > 32 µM; in assay [2], 8 µM (≈ 3.88 µg/mL); in assay [3], 4 µM (≈ 1.94 µg/mL); in assay [4], 16 µM (≈ 7.75 µg/mL); in assay [5], > 32 µM; in assay [6] it was 2 µM (≈ 0.969 µg/mL).

In the case of `CS(=O)(=O)NC(=O)CCc1cn(-c2ccc(Br)cc2)nc1-c1ccncc1` [Compound 1], the minimum inhibitory concentration (MIC) in assay [1] (setting [8]), in assay [2] (setting [9]), in assay [3] (setting [10]), in assay [4] (setting [11]), in assay [5] (setting [12]) and in assay [6] (setting [13]) was > 128 µM in each case.

Regarding `CS(=O)(=O)NC(=O)CCc1cn(-c2ccc(Cl)cc2)nc1-c1ccc(Cl)cc1` [Compound 2], the MIC in assay [1] (setting [8]) is > 128 µM; in assay [2] (setting [9]), > 128 µM; in assay [3] (setting [10]), > 128 µM; in assay [4] (setting [11]), > 128 µM; in assay [5] (setting [12]), > 128 µM; in assay [6] (setting [7]) it was 128 µM (≈ 56.1 µg/mL). Besides, in assay [6] (setting [13]), the MIC was found to be 128 µM (≈ 56.1 µg/mL).

In the case of `COc1c(N2C[C@@H]3CCCN[C@@H]3C2)c(F)cc2c(=O)c(C(=O)O)cn(C3CC3)c12` [Moxifloxacin, moxifloxacin, reference compound], the MIC was 2 µM (≈ 0.803 µg/mL) in assay [1] (setting [8]); 0.06 µM (≈ 0.0241 µg/mL) in assay [3] (setting [10]); 0.5 µM (≈ 0.201 µg/mL) in assay [4] (setting [11]); > 32 µM in assay [5] (setting [12]); 0.06 µM (≈ 0.0241 µg/mL) in assay [6] (setting [13]).

As to `CS(=O)(=O)NC(=O)NCc1cc(-c2ccc(Br)cc2)oc1-c1ccncc1` [Compound 14], the MIC in assay [1] (setting [8]) was > 128 µM; in assay [2] (setting [9]), > 128 µM; in assay [3] (setting [10]) it was 128 µM (≈ 57.6 µg/mL); in assay [4] (setting [11]) it was > 128 µM; in assay [5] (setting [12]) it was > 128 µM; in assay [6] (setting [13]) it was > 128 µM.

Turning to `CS(=O)(=O)NC(=O)NCc1cn(-c2ccc(C(F)(F)F)nc2)nc1-c1ccncc1` [Compound 11], the MIC in assay [1] (setting [8]), in assay [2] (setting [9]), in assay [3] (setting [10]), in assay [4] (setting [11]), in assay [5] (setting [12]) and in assay [6] (setting [13]) was > 128 µM in each case.

Consider `O=C(/C=C/c1ccc(O)c(O)c1)c1ccc(O)cc1O` [butein], for which, at Mtb HadAB, the Ki is 13.5 µM.
